The supplement of paper PMC12067230
Single values of this set are uncertain.
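Further: [psi-pin-] Saccharomyces cerevisiae expressing SupN fusions, induced by 100 µM Cu2SO4, selected 7 d at 30 °C without adenine and uracil, scored by deep sequencing of output versus input.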

Assay: amyloid nucleation score relative to library mode (yeast Sup35 reporter selection) (log enrichment difference); higher = more amyloid nucleation; sequences are the first 22 residues of the Bri2 peptide extended by up to 12 random residues
Details: random library (experiment): 1;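 active = nucleation score significantly above 0 at FDR 0.05; inactive = not significantly above 0 or absent from output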
Procedure: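 Random C-terminal extensions of the 22-aa Bri2 peptide by 12 NNK codons; premature stops give shorter extensions. Peptides were fused to the Sup35 nucleation domain in S. cerevisiae [psi-pin-] and selected on -ADE-URA plates for 7 d at 30 °C. The nucleation score is log(output/input), centred to the mode of each of 3 independent libraries (1 input, 3 technical output replicates), with duplicates merged. Sequences absent from the output ('random_non_nuc') were imputed with the library mode value, so they are given as censored (<). Nucleators are scores significantly >0 at FDR 0.05.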
In the case of EASNCFAIRHFENKFAVETLICGSLNGIDGGRRW, the amyloid nucleation score is reported as 3.26.
In the case of EASNCFAIRHFENKFAVETLICRGILSKSNVKSW, the amyloid nucleation score is reported as “inactive”.
Work on EASNCFAIRHFENKFAVETLICDM yielded an amyloid nucleation score of -0.179.
With EASNCFAIRHFENKFAVETLICLCRVIACESGTR the amyloid nucleation score was “inactive”.
For EASNCFAIRHFENKFAVETLICRGTKVLSPLDSA, the amyloid nucleation score was “inactive”.
Work on EASNCFAIRHFENKFAVETLICCVMASSCYFYR yielded an amyloid nucleation score of 2.01.
In the case of EASNCFAIRHFENKFAVETLICEAPSGLGGKLQG, the amyloid nucleation score is reported as “inactive”.
For EASNCFAIRHFENKFAVETLICVVDMLMPFGARC, the amyloid nucleation score was “inactive”.
With EASNCFAIRHFENKFAVETLICVCRESSLRTGHE the amyloid nucleation score was 4.07.
EASNCFAIRHFENKFAVETLICMFTVNN gave an amyloid nucleation score of 6.8.
In the case of EASNCFAIRHFENKFAVETLICVLKSMFHVGRGT, the amyloid nucleation score is reported as “inactive”.
For EASNCFAIRHFENKFAVETLICEWWQVDEEVQRE, the amyloid nucleation score was “inactive”.
With EASNCFAIRHFENKFAVETLICEMLMCNSDPVLC the amyloid nucleation score was “inactive”.
For EASNCFAIRHFENKFAVETLICPWRPIYNRLHTA, the amyloid nucleation score was “inactive”.
In the case of EASNCFAIRHFENKFAVETLICRFQGVLPLLEVR, the amyloid nucleation score is reported as “inactive”.
With EASNCFAIRHFENKFAVETLICLWCLHRMRILHA the amyloid nucleation score was “inactive”.
In the case of EASNCFAIRHFENKFAVETLICASARLTYCACQR, the amyloid nucleation score is reported as 5.61.
Sequence EASNCFAIRHFENKFAVETLICVFYSGVKVIMHY has an amyloid nucleation score of 3.14.
For EASNCFAIRHFENKFAVETLICECPIGGDCPGAR, the amyloid nucleation score was “inactive”.
In the case of EASNCFAIRHFENKFAVETLICWFFLWSWVGRVK, the amyloid nucleation score is reported as “inactive”.
In the case of EASNCFAIRHFENKFAVETLICCHEPALGGASWD, the amyloid nucleation score is reported as “inactive”.
With EASNCFAIRHFENKFAVETLICRAYEVPVGMAPW the amyloid nucleation score was “inactive”.
In the case of EASNCFAIRHFENKFAVETLICFKNGPSMGMCRT, the amyloid nucleation score is reported as “inactive”.
For EASNCFAIRHFENKFAVETLICRCSCS, the amyloid nucleation score was “inactive”.
With EASNCFAIRHFENKFAVETLICRYTMFYFSRSFH the amyloid nucleation score was -0.345.
For EASNCFAIRHFENKFAVETLICTDRALR, the amyloid nucleation score was -0.0479.
In the case of EASNCFAIRHFENKFAVETLICVTVWTSVRPECG, the amyloid nucleation score is reported as “inactive”.
In the case of EASNCFAIRHFENKFAVETLICTFYGYWYSEFTC, the amyloid nucleation score is reported as “inactive”.
In the case of EASNCFAIRHFENKFAVETLICVFTLNAIEYVKR, the amyloid nucleation score is reported as “inactive”.
For EASNCFAIRHFENKFAVETLICFFWFRLITVPGE, the amyloid nucleation score was “inactive”.
In the case of EASNCFAIRHFENKFAVETLICKWSGKHVWGRSG, the amyloid nucleation score is reported as “inactive”.
In the case of EASNCFAIRHFENKFAVETLICRPLHSLIVVPMC, the amyloid nucleation score is reported as “inactive”.
In the case of EASNCFAIRHFENKFAVETLICRCLGGGPTGPWR, the amyloid nucleation score is reported as 1.92.
In the case of EASNCFAIRHFENKFAVETLICGLKLVVDRNRCL, the amyloid nucleation score is reported as 5.62.
EASNCFAIRHFENKFAVETLICWKLNSVSVWIHI gave an amyloid nucleation score of -0.606.
In the case of EASNCFAIRHFENKFAVETLICIRNCCMLGNVVG, the amyloid nucleation score is reported as “inactive”.
For EASNCFAIRHFENKFAVETLICGAAVTGARTCGV, the amyloid nucleation score was “inactive”.
Work on EASNCFAIRHFENKFAVETLICIAYGKWLRGCAS yielded an amyloid nucleation score of 2.26.
Sequence EASNCFAIRHFENKFAVETLICCSNQDVRWLCSV has an amyloid nucleation score of 7.24.
In the case of EASNCFAIRHFENKFAVETLICGNRSSQTGTGSR, the amyloid nucleation score is reported as “inactive”.
In the case of EASNCFAIRHFENKFAVETLICGERLTMWQCWWL, the amyloid nucleation score is reported as “inactive”.
In the case of EASNCFAIRHFENKFAVETLICRGEDRWERSDAA, the amyloid nucleation score is reported as -0.379.
With EASNCFAIRHFENKFAVETLICKRMLRWNGSRWF the amyloid nucleation score was “inactive”.
With EASNCFAIRHFENKFAVETLICEWWNEVQRERRC the amyloid nucleation score was “inactive”.
In the case of EASNCFAIRHFENKFAVETLICRTYDLFRVVRWP, the amyloid nucleation score is reported as “inactive”.
EASNCFAIRHFENKFAVETLICTDTILMTHTDRP gave an amyloid nucleation score of 4.97.
Sequence EASNCFAIRHFENKFAVETLICVWVAWCKPTLRA has an amyloid nucleation score of 0.00985.
EASNCFAIRHFENKFAVETLICVRGSCL gave an amyloid nucleation score of 5.08.
With EASNCFAIRHFENKFAVETLICFAHRYFLHSFVR the amyloid nucleation score was “inactive”.
In the case of EASNCFAIRHFENKFAVETLICWVVDPTVIVGCW, the amyloid nucleation score is reported as 5.93.
In the case of EASNCFAIRHFENKFAVETLICWQLAEWSQCRTG, the amyloid nucleation score is reported as “inactive”.

Same assay, conditions: random library (experiment): 2
For EASNCFAIRHFENKFAVETLICYGRETFTVKMFL, the amyloid nucleation score was 3.31.
For EASNCFAIRHFENKFAVETLICVLKRIGLKPDRP, the amyloid nucleation score was “inactive”.
In the case of EASNCFAIRHFENKFAVETLICRSFHEGCRPLYM, the amyloid nucleation score is reported as “inactive”.
For EASNCFAIRHFENKFAVETLICLILGIGRVYTD, the amyloid nucleation score was “inactive”.
EASNCFAIRHFENKFAVETLICIHWFGTVICPSS gave an amyloid nucleation score of -0.191.
Sequence EASNCFAIRHFENKFAVETLICNLPSIHWHDSYS has an amyloid nucleation score of 6.66.
Work on EASNCFAIRHFENKFAVETLICNYVFFIDFRRTF yielded an amyloid nucleation score of 5.77.
Sequence EASNCFAIRHFENKFAVETLICYFCR has an amyloid nucleation score of 7.25.
EASNCFAIRHFENKFAVETLICGSMRYLTDTRRL gave an amyloid nucleation score of 3.2.
For EASNCFAIRHFENKFAVETLICRDYSITPRNYTG, the amyloid nucleation score was “inactive”.
With EASNCFAIRHFENKFAVETLICLFLVIFRRHVLV the amyloid nucleation score was “inactive”.
EASNCFAIRHFENKFAVETLICNFVFGTLLASSY gave an amyloid nucleation score of 5.1.
For EASNCFAIRHFENKFAVETLICHSLYLMCVRVMQ, the amyloid nucleation score was “inactive”.
With EASNCFAIRHFENKFAVETLICVLRTRQGLDVPK the amyloid nucleation score was “inactive”.
EASNCFAIRHFENKFAVETLICAVRLPSCITPFS gave an amyloid nucleation score of 4.97.
Sequence EASNCFAIRHFENKFAVETLICVYPHCDLTAMFA has an amyloid nucleation score of 6.48.
With EASNCFAIRHFENKFAVETLICYSGGV the amyloid nucleation score was “inactive”.
EASNCFAIRHFENKFAVETLICYGYTGSDKCGLR gave an amyloid nucleation score of 4.47.
EASNCFAIRHFENKFAVETLICIKGYGFTVTS gave an amyloid nucleation score of -0.358.
With EASNCFAIRHFENKFAVETLICEYERR the amyloid nucleation score was “inactive”.
For EASNCFAIRHFENKFAVETLICLSLVWVL, the amyloid nucleation score was “inactive”.
In the case of EASNCFAIRHFENKFAVETLICTLFDPCHLRFSA, the amyloid nucleation score is reported as 2.09.
In the case of EASNCFAIRHFENKFAVETLICFLSIKNSWYWMG, the amyloid nucleation score is reported as “inactive”.
In the case of EASNCFAIRHFENKFAVETLICATVTRVSWGSGV, the amyloid nucleation score is reported as 1.2.
With EASNCFAIRHFENKFAVETLICGCQFSISCILLT the amyloid nucleation score was “inactive”.
EASNCFAIRHFENKFAVETLICCLGCIPLIGYRG gave an amyloid nucleation score of 5.72.
In the case of EASNCFAIRHFENKFAVETLICLRYYLYASMY, the amyloid nucleation score is reported as “inactive”.
EASNCFAIRHFENKFAVETLICFDFCSTYRHIVC gave an amyloid nucleation score of 4.26.
EASNCFAIRHFENKFAVETLICFIN showed an amyloid nucleation score of 7.27.

Same assay, conditions: random library (experiment): 3
For EASNCFAIRHFENKFAVETLICAVLRAHLMGRCS, the amyloid nucleation score was “inactive”.
For EASNCFAIRHFENKFAVETLICPSWSEGYFSLHD, the amyloid nucleation score was “inactive”.
For EASNCFAIRHFENKFAVETLICLVVS, the amyloid nucleation score was “inactive”.
For EASNCFAIRHFENKFAVETLICDDSDVRDCYSLE, the amyloid nucleation score was “inactive”.
For EASNCFAIRHFENKFAVETLICYSVILMQRDVIS, the amyloid nucleation score was “inactive”.
For EASNCFAIRHFENKFAVETLICATGAMRIVCSAC, the amyloid nucleation score was 0.758.
With EASNCFAIRHFENKFAVETLICDEWCPWMGGQAE the amyloid nucleation score was “inactive”.
In the case of EASNCFAIRHFENKFAVETLICLVGHLSVLTYIR, the amyloid nucleation score is reported as “inactive”.
For EASNCFAIRHFENKFAVETLICFSIYKTAIFIMN, the amyloid nucleation score was 5.88.
For EASNCFAIRHFENKFAVETLICLRCMALEAEGRQ, the amyloid nucleation score was “inactive”.
For EASNCFAIRHFENKFAVETLICRNDWTRTVLLSG, the amyloid nucleation score was “inactive”.
For EASNCFAIRHFENKFAVETLICEVMWYRHLYQPM, the amyloid nucleation score was “inactive”.
Sequence EASNCFAIRHFENKFAVETLICVRYKVCL has an amyloid nucleation score of 3.82.
For EASNCFAIRHFENKFAVETLICQVSGSTPFLGRA, the amyloid nucleation score was “inactive”.
With EASNCFAIRHFENKFAVETLICLVGLLSRNYGFV the amyloid nucleation score was “inactive”.
With EASNCFAIRHFENKFAVETLICVNALFGLIVSCR the amyloid nucleation score was “inactive”.
In the case of EASNCFAIRHFENKFAVETLICETRASERFMLAA, the amyloid nucleation score is reported as “inactive”.
EASNCFAIRHFENKFAVETLICGQVGWDFGRCGM gave an amyloid nucleation score of 6.3.
In the case of EASNCFAIRHFENKFAVETLICLFGWFNIHLYQR, the amyloid nucleation score is reported as “inactive”.
With EASNCFAIRHFENKFAVETLICVLKWTNRRVSVG the amyloid nucleation score was 1.17.
For EASNCFAIRHFENKFAVETLICLLLLRC, the amyloid nucleation score was “inactive”.
In the case of EASNCFAIRHFENKFAVETLICFFVICYFSFVAW, the amyloid nucleation score is reported as 1.2.
In the case of EASNCFAIRHFENKFAVETLICFRMLAAF, the amyloid nucleation score is reported as “inactive”.
In the case of EASNCFAIRHFENKFAVETLICQEGYDL, the amyloid nucleation score is reported as “inactive”.
With EASNCFAIRHFENKFAVETLICTVLSGHLLWYYP the amyloid nucleation score was “inactive”.
In the case of EASNCFAIRHFENKFAVETLICHIGNVLLTFWAK, the amyloid nucleation score is reported as “inactive”.
In the case of EASNCFAIRHFENKFAVETLICRTVSAGMYMVFR, the amyloid nucleation score is reported as “inactive”.
With EASNCFAIRHFENKFAVETLICISGLCLRHMRV the amyloid nucleation score was “inactive”.
With EASNCFAIRHFENKFAVETLICRPRDIWQSNALA the amyloid nucleation score was “inactive”.
In the case of EASNCFAIRHFENKFAVETLICEYRVAIRVRANL, the amyloid nucleation score is reported as “inactive”.
For EASNCFAIRHFENKFAVETLICTVGG, the amyloid nucleation score was “inactive”.
EASNCFAIRHFENKFAVETLICEFK showed an amyloid nucleation score of 1.47.
EASNCFAIRHFENKFAVETLICNMWVRHFGNGLY gave an amyloid nucleation score of 5.08.
In the case of EASNCFAIRHFENKFAVETLICDGSIRSRKTLNG, the amyloid nucleation score is reported as -0.253.
